From the supplement of paper PMC3724861
Some of the results follow.

Each sequence was assayed on T1, Caupolican (Caup) homeodomain DNA-binding domain (assay: PBM E-score (8-mer, recovered from the published 9-mer minima) (E-score (dimensionless, -0.5 to 0.5)); Drosophila protein; higher = stronger relative binding preference, active = 0.31 or more).
T1 sequence: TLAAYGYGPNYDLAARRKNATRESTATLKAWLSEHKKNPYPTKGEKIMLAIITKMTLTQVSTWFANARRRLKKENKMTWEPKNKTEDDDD
Procedure: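 Protein binding microarray (PBM): in vitro transcribed/translated Caupolican (Caup) homeodomain DNA-binding domain (residues 214-303) applied at 100 nM to a universal 8-mer PBM array (Agilent AMADID 015681). The 8-mer enrichment score (E-score, range -0.5 to 0.5) was computed, and each 9-mer score is the minimum E-score of its two constituent 8-mers. The E-score is the same for a 9-mer and its reverse complement; 0.31 is the stated binding threshold.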

Sequence | PBM E-score
GAATACGC | inactive: -0.0247
ACTTCCGA | inactive: -0.0549
CCACCTCC | inactive: -0.168
AACTTGGA | inactive: 0.00535
AAGCCGAC | inactive: -0.0898
AGGCCCAC | inactive: -0.27
CAGGAAAA | inactive: 0.105
CGCGAGAA | inactive: -0.107
CTCGCCTA | inactive: -0.074
CACTGTCA | inactive: 0.139
ACAAAAAA | inactive: 0.199
AACTAGGG | inactive: -0.0781
TACCTAGA | inactive: 0.111
AAACAAAA | inactive: 0.189
CCCGCAAA | ≥ -0.0153
AACAGATG | inactive: 0.151
TTCTTAAA | inactive: 0.0619
AGCCCTCG | inactive: -0.196
CAGTTAAA | inactive: 0.0971
AACCTAAG | inactive: -0.0153
GTCCATGA | inactive: 0.0658
GCGCGACC | inactive: -0.141
CAGAAGGA | inactive: -0.156
CCGTATGC | inactive: -0.225

Sequence | PBM E-score
CATGTGAG | inactive: 0.173
GCGATAAC | inactive: -0.00824
AAAAACCA | inactive: 0.137
GACGACGA | inactive: -0.0012
GGAAATCC | inactive: -0.0738
CGAACTAA | inactive: -0.0144
CGCCTGCA | inactive: -0.165
ACGGACTG | inactive: 0.0627
GGTATTAA | inactive: 0.0311
AGACTGAG | inactive: -0.112
CGGACCAC | inactive: -0.0715
AGGGGCAT | ≥ -0.0561
AAAGTTAC | inactive: 0.196
AAAGACAT | inactive: 0.205
TACAAATA | ≥ 0.277
AGCCCGCT | inactive: -0.225
ATACGTCG | inactive: 0.0317
CGACCATA | inactive: -0.00194
AAAGGATC | inactive: -0.0619
CGTCATCC | inactive: -0.0703
CCTGATCA | inactive: -0.0297
ATAACCCG | inactive: -0.0738
AACGATAA | inactive: 0.117
CATTACGA | inactive: 0.106

Sequence | PBM E-score
CCTGGGAA | inactive: -0.0649
ACGGTCAA | inactive: 0.0687
CCGATTCG | inactive: -0.0306
CTCGCAAA | inactive: -0.00423
GTCCCTAA | inactive: -0.0722
GACTGTAC | inactive: 0.141
CACCATCG | inactive: -0.137
ACCCTCTC | inactive: -0.164
GCACAAAA | inactive: 0.0105
CCTCTAAA | inactive: -0.1
AGCATCTC | inactive: -0.00696
GCCTTGCA | inactive: -0.0717
ATAAAGGG | inactive: -0.0932
ACAATGCC | inactive: 0.0425
AGCAGAGC | inactive: -0.153
AGGACGTC | inactive: -0.105
AATCACCT | inactive: 0.124
AGAGCGGA | inactive: -0.0462
GTTTAGGA | inactive: -0.0322
ATTGGCGA | ≥ -0.00227
ACCAGTAG | inactive: 0.0693
CTTGGATA | inactive: 0.0623
AAGGGTCT | inactive: -0.168
CGCCACCG | inactive: -0.205

Sequence | PBM E-score
CAAATCCA | inactive: 0.0551
CTGTACGA | inactive: 0.203
AGTGTGAG | inactive: -0.0213
CATGGTTA | inactive: 0.173
CGAACCCA | inactive: -0.0798
AAACTCTC | inactive: -0.0677
ATCTCATC | inactive: 0.0647
AGCCTCAT | inactive: -0.0641
AAGGACTT | inactive: -0.0542
GTCCTTCA | inactive: 0.0485
CTCCCAAG | inactive: -0.124
ATTAGCCC | inactive: -0.115
ATGCCTGA | inactive: 0.0206
TCGCATAA | inactive: 0.0741
GTGATACA | inactive: 0.207
AGATTGCC | inactive: -0.0637
CGACAATA | ≥ 0.243
CATCCGTC | inactive: 0.0132
CATACAAA | inactive: 0.234
AACGAGAC | inactive: 0.104
AAAATTAG | inactive: 0.0162
AGGTGCTG | inactive: -0.0945
AAACCCTG | inactive: 0.0253
TACCCCAA | inactive: -0.0804

Sequence | PBM E-score
CACTCGGG | inactive: -0.108
CCCCAGCG | inactive: -0.312
AAAGGGTT | inactive: -0.0572
CGAACGTC | inactive: -0.121
AAGTTTAA | inactive: 0.0876
GACCTGCA | inactive: -0.0631
ACATACAA | active: 0.386
CTCACGTA | inactive: 0.00264
AATACAGT | inactive: 0.127
CATAAGGC | inactive: -0.0453
ATCATTTA | ≥ 0.18
GACACGGC | inactive: 0.247
GGAAGCAA | inactive: 0.0105
ATTGCGCG | inactive: 0.00241
GAAACATC | inactive: 0.166
TCGCAGCA | inactive: -0.0424
CACGCCCG | inactive: -0.0794
CCAGATTC | inactive: -0.16
ATGTGGAG | inactive: -0.0432
GAATGCCC | inactive: -0.141
ACCTAATC | inactive: 0.129
AAAGATAT | inactive: 0.0965
TAACTGTA | inactive: 0.162
GCCACGAC | inactive: -0.0328

Sequence | PBM E-score
AGTTACGC | inactive: -0.0237
AGTAGAGG | inactive: -0.0685
AGCGAGAG | inactive: -0.0662
ATAGACGG | inactive: -0.0463
CTGACCAG | inactive: -0.125
GCACTGTA | inactive: 0.00665
TAGTATCA | inactive: 0.181
AGGTGATG | inactive: 0.0743
GAAAGGAA | inactive: -0.127
CTACATCA | inactive: 0.253
CTCTGTTA | inactive: 0.107
GTGTGGAA | inactive: 0.0328
CCATGGAA | inactive: 0.116
AATGACCT | inactive: 0.0763
ATTGGAAC | inactive: 0.133
AACAGCCA | inactive: 0.0697
ACCTCGTG | inactive: 0.0342
CTCTAATA | inactive: 0.129
CCTTTACA | inactive: 0.182
CCACGATA | inactive: 0.0391
AAGGATAC | inactive: 0.0741
CGAGTTCA | inactive: -0.00371
